Hit rate of the full screen: of about 310,000 compounds, about 2,200 (0.71%) showed an effect of 50% or more. Effects have a minus sign here. The list shows a part of the results.
biological target: human ether-à-go-go-related gene (hERG) potassium channel (human, UniProt Q12809); assay: primary screen, population patch clamp on CHO cells stably expressing hERG
Sequence (Q12809 whole entry, looked up): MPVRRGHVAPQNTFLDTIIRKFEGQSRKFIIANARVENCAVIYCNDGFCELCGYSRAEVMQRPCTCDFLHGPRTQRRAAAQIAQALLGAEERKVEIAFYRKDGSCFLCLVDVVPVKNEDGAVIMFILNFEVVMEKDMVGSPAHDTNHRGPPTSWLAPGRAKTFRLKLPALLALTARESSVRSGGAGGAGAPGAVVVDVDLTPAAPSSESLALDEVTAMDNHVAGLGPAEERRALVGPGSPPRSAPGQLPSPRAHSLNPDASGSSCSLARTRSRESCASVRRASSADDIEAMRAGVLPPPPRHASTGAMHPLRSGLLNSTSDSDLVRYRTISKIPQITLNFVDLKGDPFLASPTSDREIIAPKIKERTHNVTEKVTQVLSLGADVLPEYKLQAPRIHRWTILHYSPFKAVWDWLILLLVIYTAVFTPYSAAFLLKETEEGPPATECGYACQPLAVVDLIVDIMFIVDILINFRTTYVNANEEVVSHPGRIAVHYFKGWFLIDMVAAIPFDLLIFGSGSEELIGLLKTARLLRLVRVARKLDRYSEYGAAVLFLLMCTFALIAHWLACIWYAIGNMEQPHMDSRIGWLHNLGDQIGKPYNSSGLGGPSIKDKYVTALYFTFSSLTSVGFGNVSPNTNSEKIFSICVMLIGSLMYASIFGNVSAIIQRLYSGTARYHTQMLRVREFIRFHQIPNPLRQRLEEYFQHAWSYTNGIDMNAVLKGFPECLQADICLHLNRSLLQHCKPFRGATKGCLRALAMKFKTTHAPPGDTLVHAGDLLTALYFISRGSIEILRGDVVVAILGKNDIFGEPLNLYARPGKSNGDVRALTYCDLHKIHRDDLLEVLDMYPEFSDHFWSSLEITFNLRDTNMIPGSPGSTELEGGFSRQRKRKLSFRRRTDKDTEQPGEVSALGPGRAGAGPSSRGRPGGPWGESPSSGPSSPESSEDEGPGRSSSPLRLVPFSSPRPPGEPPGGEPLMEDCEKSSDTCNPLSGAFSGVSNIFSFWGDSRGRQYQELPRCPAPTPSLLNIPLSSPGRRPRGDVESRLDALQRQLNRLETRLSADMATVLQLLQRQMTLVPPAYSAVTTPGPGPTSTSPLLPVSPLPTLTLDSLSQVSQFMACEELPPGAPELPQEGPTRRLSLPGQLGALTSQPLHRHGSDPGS

Point of comparison: CC(=O)Nc1cccc2c1Cc1ccccc1-2, “hERG current change (%, negative = inhibition) at 1uM” value 14.4%. Against it:
- CCCCNC(=O)Oc1ccc(C(=O)N2c3ccccc3NC(=O)C2C)cc1 (stereo not drawn) — lower, 11.4%
- c1ccc(CN2CCC(Nc3nc(-c4cccnc4)nc4ccccc34)CC2)cc1 — lower, -74.6%
- Cc1cccn2c(=O)c3cc(C(N)=S)c(=N)n(CCCN4CCOCC4)c3nc12 — lower, -90.5%
- COc1cc(C2C(S(=O)(=O)c3ccccc3)CON2C)ccc1OCc1ccc(F)cc1 (stereo not drawn) — lower, 1.02%
- C/C(=N\NC(=O)c1c(C)nc2ccccn12)c1ccc(O)cc1O — higher, 16.3%
- NC1=C([N+](=O)[O-])C(c2ccc(F)cc2)C2=C(CCCC2=O)O1 (stereo not drawn) — lower, 10.2%
- Cc1ccccc1NC(=O)c1c([N+](=O)[O-])c(C(C)(C)C)nn1C — lower, 7.26%
- CC1=C(C(=O)OCC2CCCCC2)C(c2cccc(O)c2)NC(=O)N1 (stereo not drawn) — lower, 5.44%
- Oc1ccccc1-n1c(-c2ccccc2)ccc1-c1ccccc1 — lower, 13%
- O=C(Nc1cccc2c1C(=O)NC2=O)c1ccc(N2C(=O)CCC2=O)cc1 — lower, 10.6%
- Cc1cc(C)cc(NC(=O)CN2CCN(c3ccccn3)CC2)c1 — lower, 1.92%
- CN(C)S(=O)(=O)c1cccc(C(=O)OCC(=O)N2CCCC2=O)c1 — lower, 12.1%
- CC1CCCN(Cc2nc3c(c(=O)n(C)c(=O)n3C)n2CC(N)=O)C1 (stereo not drawn) — lower, 8.42%
- CS(=O)(=O)N1CCN(C(=O)CSc2ccccc2)CC1 — higher, 17.3%
- Cc1ccc(N2C(=O)N(CC(=O)NCc3ccc(Cl)cc3)C(=O)C2C)cc1 (stereo not drawn) — lower, 4.65%
- O=C(Nc1cccc2ncccc12)c1ccccc1Cl — higher, 17.1%
- COCCn1c(N)c(N(Cc2ccccc2)C(=O)COc2ccc(F)cc2Cl)c(=O)[nH]c1=O — higher, 14.5%
- O=C(CCCc1ccccc1)Nc1cccnc1Cl — lower, 8.5%
- CCOC(=O)N1CCC(NC(=O)c2cn(-c3ccc(OC)cc3)c(=O)c3ccccc23)CC1 — lower, 9.14%
- CC(=O)NS(=O)(=O)c1ccc(NC(=O)c2cccc(S(=O)(=O)N3CCc4ccccc43)c2)cc1 — lower, 11.2%
- Cc1ccccc1NS(=O)(=O)c1ccc(C(=O)NCC(c2ccccc2)N(C)C)cc1 (stereo not drawn) — lower, 13.3%
- COc1ccc2nc(CNC(=O)C3CCC(=O)N(CCc4ccccc4)C3)[nH]c2c1 (stereo not drawn) — lower, 12.7%
- O=c1c2ccccc2[nH]c(=S)n1CCCN1CCC(Cc2ccccc2)CC1 — lower, -52%
- CC/C(=N\NC(=O)CCC(=O)NCc1ccccc1)c1ccc(O)cc1 — higher, 16%
- CC(C)CC1Nc2ccc(C(=O)NCCCN3CCOCC3)cc2NC1=O (stereo not drawn) — higher, 14.6%
- O=C(CN1C(=O)C2C3CC(C(Br)C3Br)C2C1=O)Nc1ccc(C(=O)O)cc1 (stereo not drawn) — higher, 17.8%
- COc1cccc(N(CC(=O)NCCSc2ccccn2)S(C)(=O)=O)c1 — lower, 5.32%
- CC1=C(C(=O)OCC2CCCO2)C(c2ccc(C)o2)C2=C(CC(c3ccc(F)cc3)CC2=O)N1 (stereo not drawn) — lower, 2.55%
- CCC(=O)Nc1ccc(/C(C)=N\NS(=O)(=O)c2ccc(C)cc2)cc1 — lower, 3.85%
- COc1ccc(/C=C2\SC(=S)N(CCC(=O)NCCCN3CCOCC3)C2=O)cc1.Cl — lower, 9.51%
- O=C(c1cccc2ccccc12)C1CCCN(C(=O)CCc2cnccn2)C1 (stereo not drawn) — lower, 7.64%
- CCOc1cc(/C=C2/NC(=O)N(CC(=O)Nc3cccc(C)c3)C2=O)ccc1OCC(N)=O — lower, 11.1%
- Cn1c(SCC(=O)c2ccc(F)cc2)nnc1-c1cnccn1 — lower, 7.49%
- O=C(c1ccc(Sc2ccccc2)c([N+](=O)[O-])c1)N1CCOCC1 — lower, 13.7%
- COc1ccc(S(=O)(=O)N2CCCCC2)cc1C(=O)Nc1cc(C)on1 — lower, -2.46%
- Cc1ccc(S(=O)(=O)N2CCOCC2)cc1NS(=O)(=O)c1ccc(F)c(F)c1 — lower, -0.313%
- O=C(O)CCC(=O)N1CCN(c2ccc(C(=O)c3ccc(F)cc3)cc2)CC1 — lower, -1.21%
- O=C(c1ccc(NS(=O)(=O)c2ccc(F)cc2)cc1)N1CCCCCC1 — higher, 16.4%
- COC(=O)CCCC[C@@H]1SC[C@@H](NC(=O)OC)[C@@H]1NC(=O)OC — lower, 9.11%
- Cc1cc(C)c(OCCCCCn2ccnc2)c(C)c1 — lower, 9.7%
- CCc1ccc(-n2c(=S)sc3c(=O)n(-c4ccccc4C)c(SCC(=O)O)nc32)cc1 — lower, 12.2%
- CN(C)/C=C/C(=O)c1ncc(C(F)(F)F)cc1Cl — lower, 13.5%
- CC(C)CNS(=O)(=O)c1ccc(OCC(=O)Nc2ccc3c(c2)OCCO3)cc1 — the same, 14.4%
- CC(O)C(NS(=O)(=O)c1ccc(Cl)cc1)C(=O)OCC(=O)N1CCN(c2ccccc2)CC1 (stereo not drawn) — lower, 6.01%
- CC(CC(=O)O)CC(=O)Nc1nncs1 (stereo not drawn) — lower, 4.53%
- COC(=O)c1ccc(C(C(=O)NC2CCCCC2)N(CCN2CCOCC2)C(=O)Cc2cccs2)cc1 (stereo not drawn) — lower, 0.602%
- CCn1c2ccccc2c2cc(CN3CCN(S(=O)(=O)Cc4ccccc4)CC3)ccc21.O=C(O)C(=O)O — higher, 21.5%
- CCc1cccc(C)c1NC(=S)N(CCCN1CCOCC1)Cc1cccnc1 — lower, 6.27%
- Cc1ccc(OCC(=O)N2CCN(c3nnc(-c4ccccc4)c4ccccc34)CC2)cc1 — lower, -2.45%
- Cc1cc(OCC(=O)OCC(=O)Nc2ccc(Cl)cn2)ccc1Cl — lower, 6.23%
- O=[N+]([O-])c1cccc(S(=O)(=O)N2CCCCC2)c1 — lower, 7.36%
- CS(=O)(=O)O.c1cnc(N2CCN(Cc3ccc4c(c3)OCO4)CC2)nc1 — higher, 16.5%
- COC(=O)c1cc(Cl)c(NC(=O)/C=C/c2ccc(OC)cc2)cc1OC — lower, 6.05%
- O=C(CSc1nnc(NC(=O)c2cccc(F)c2)s1)NCc1ccco1 — lower, 12.5%
- O=C(c1ccco1)N1CCN(C(=O)c2cccc3c2C(=O)N(C2CCCCC2)C3)CC1 — lower, 2.48%
- O=C(Cc1ccccc1)NCC(=O)N/N=C/c1cccs1 — higher, 14.6%
- Cl.c1ccc2c(c1)oc1c(Nc3ccc4c(c3)OCCO4)ncnc12 — lower, 6.16%
- CCc1cc(C(=O)NNC(=S)Nc2ccccc2C)cs1 — lower, -2.24%
- Cc1ccc(C(=O)N/N=C/c2ccc3c(c2)OCO3)o1 — lower, 10.3%
- Cc1ccc(NC(=S)NC(=O)/C=C/c2ccc(Cl)cc2)cc1 — lower, 13.1%
- CC(C)C(=O)NC(=S)Nc1ccccn1 — lower, 8.48%
- CN(C)N(C)C(=O)C(O)(c1ccccc1)c1ccccc1 — lower, 5.43%
- COc1ccc(S(=O)(=O)Nc2ccccc2C(=O)N2CCOCC2)cc1OC — lower, 7.85%
- CCOc1ccc(Br)cc1S(=O)(=O)NC(=O)c1ccccc1 — lower, 12.9%
- Cc1cc(C)c[n+](CC(=O)c2ccc(NC(=O)c3ccccc3)cc2)c1.[Br-] — lower, 11.5%
- Cc1ccc(CSCCNS(C)(=O)=O)cc1 — lower, 10.9%
- COc1ccc(OC)c(/C=N/NC(=O)c2c(C)nc3ccc(C)cn23)c1 — lower, 11.6%
- CC(C)c1ccc(Nc2ncccc2C#N)cc1 — lower, 6.51%
- O=C(NCC(=O)N1CCN(c2ncccn2)CC1)c1cccs1 — lower, 3.14%
- COc1ccc2c(c1)O[C@H](c1ccc3c(c1)OCO3)[C@@H](OC(=O)N[C@H]1CCCc3ccccc31)C2=O — lower, 10.1%
- Nc1ncnc(Nc2cc(Cl)cc(Cl)c2)c1[N+](=O)[O-] — lower, 8.04%
- CC1(C)Cc2cccc(OCC(N)=O)c2O1 — higher, 14.5%
- COc1ccc(CN2CCc3ccc(NC(=O)c4ccncc4)cc3C2)c(F)c1 — lower, 0.723%
- CCOc1cc2c(cc1OCC)-n1cccc1C(c1ccc(OC)c(OC)c1)NC2.Cl (stereo not drawn) — lower, -4.92%
- CCc1ccc(NC(=O)N2CCc3ccccc3C2)cc1 — higher, 14.8%
- C=CCN1C(=O)/C(=C/C(=O)OC)S/C1=N\NC(=O)c1ccccc1 — lower, 9.74%
- CCc1n[nH]c(=S)n1/N=C/c1cccc2ccccc12 — higher, 20.4%
- O=C(Nc1nnc(SCc2ccc(F)cc2)s1)c1cnccn1 — lower, -0.173%
- O=C(OC1CCOC1=O)c1ccc(S(=O)(=O)N2CCCCCC2)cc1 (stereo not drawn) — lower, 10.7%
- CC(=O)Nc1nc2ccccc2n1CCOc1ccccc1Cl — higher, 16.8%
- CC(=O)Nc1cccc(NC(=O)CSc2nc(=O)n3cccc(C)c3n2)c1 — higher, 22.2%
- Cc1cc(C(=O)Nc2nc3c(s2)CCCC3)cs1 — lower, 7.91%
- Cn1cnc(S(=O)(=O)N2CCN(C(c3ccc(F)cc3)c3ccc(F)cc3)CC2)c1 — lower, 10.4%
- Cc1ccc(C2(CCNCc3ccc(N(C)C)cc3)CCOC(C(C)C)C2)cc1 (stereo not drawn) — lower, -20.9%
- COc1ccc(C(C#N)(CC(=O)O)c2cnccn2)cc1OC (stereo not drawn) — lower, 7.11%
- Cn1cnnc1SCC(=O)c1ccc2c(c1)OCO2 — lower, -9.66%

From paper PMC4336329 (PLoS ONE, 2015)
